This is an account of results in PubChem BioAssay AID1347073 (National Center for Advancing Translational Sciences (NCATS), 2019).

The whole screen tested about 45,000 compounds, of which about 200 (0.44%) were called active. Not shown: some 7% with an inconclusive outcome. The call rests on the fitted dose curve; in most records, active means well fitted activation curve with a large enough effect; inconclusive means small, poorly fitted or top-dose-only effect; inactive means no such curve, though single readings can be large or run the other way. Some of the results follow.

The nature of this test: qHTS of TDP-43 Inhibitors: NCGC Sytravon Library Screen. Further: 0% is about no effect; nearly all actives have a fitted effect of over 55% in size. The conditions noted are these: yeast TDP-43 toxicity rescue, BacTiter-Glo growth, 24 h; series mostly up to 46.1 µM; growth rescue (activation): at the top concentration. In outline: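 TDP-43-expressing yeast, pregrown in raffinose, seeded at OD600 0.02 in galactose medium with compound for 24 hr at 30 deg C. Growth read by BacTiter-Glo luminescence, so rescue of toxicity appears as activation.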
(In general: qHTS replaces the single test concentration by a dilution series.)
With `CCC(C)Nc1nc(N)c([N+](=O)[O-])c(NC2CCCCC2)n1` (stereo not drawn), the “growth rescue (activation)” value was inactive: 6.95%.
Regarding `CCOC(=O)C1(Cc2ccccc2C)CCCN(Cc2ccc(NC(C)=O)cc2)C1` (stereo not drawn), the “growth rescue (activation)” value is inactive: 8.32%.
On to `CC[N+]1(CC(O)COC2CC(C)CC(C)(C)C2)CCOCC1` (stereo not drawn), for which the “growth rescue (activation)” value was inactive: -14.7%.
On to `O=C(Cc1cccc2ccccc12)Nc1ccc(-c2cc3ccccc3oc2=O)cc1`, for which the “growth rescue (activation)” value was inactive: 9.93%.
For the compound `O=c1cc(/N=C/c2coc3cc(Br)ccc3c2=O)[nH]c(=S)[nH]1`, the “growth rescue (activation)” value was inactive: 0.366%.
With `COc1ccccc1CNC(=O)CCc1nc2ccccc2c(=O)[nH]1`, the “growth rescue (activation)” value is inactive: 0.194%.
`COc1ccccc1C(C)NCC(=O)NCC(=O)Nc1ccc(F)c(F)c1F` (stereo not drawn): the “growth rescue (activation)” value was inactive: 3.47%.
Consider `Cc1ccccc1OCCNC(=O)CSc1ccc(C(F)(F)F)cc1[N+](=O)[O-]`, for which the “growth rescue (activation)” value is inactive: 1.03%.
Take `O=C(COc1cccnc1[N+](=O)[O-])Nc1ccc2c(c1)OCO2`: the “growth rescue (activation)” value is inactive: 5.58%.
`Cc1ccc(C(=O)N(CC(=O)Nc2ccc(Cl)c(Cl)c2)Cc2ccco2)cc1`: the “growth rescue (activation)” value was inactive: 9.91%.
The figure for `CCn1c(C)nc2cc(S(=O)(=O)Nc3ccc(C)cc3)ccc21` is inactive: 1.78%; for `CCC(C)NCCOCCOc1ccc(Br)cc1` (stereo not drawn) it is inactive: -4.53%; for `CCCC1(CCC)NC(=O)N(CC(=O)Nc2ccc(Cl)c(S(=O)(=O)N3CCOCC3)c2)C1=O` it is inactive: 3.09%.
Regarding `CC1CCCC(NC(=O)C2CCC(CNc3c(N4CCCCC4)c(=O)c3=O)CC2)C1C` (stereo not drawn), the “growth rescue (activation)” value was inactive: -5.16%.
On to `O=C1[C@@H]2[C@@H]3C[C@@H]([C@H]4ON=C(c5ccc(Cl)cc5Cl)[C@@H]34)[C@@H]2C(=O)N1C1CCCCC1`, for which the “growth rescue (activation)” value was inactive: 25.5%.
Regarding `CS(=O)(=O)N1CCC(Oc2ccccc2C(=O)NCCCc2cccnc2)CC1`, the “growth rescue (activation)” value is inactive: 12.1%.
On to `COc1ccc(CNC(=O)c2ccc(N3CCOCC3)c([N+](=O)[O-])c2)cc1`, for which the “growth rescue (activation)” value was inactive: 1.22%.
The figure for `COc1ccc(C(CC(=O)Nc2ccccn2)N2Cc3ccccc3C2=O)cc1` (stereo not drawn) is inactive: 4.05%.
As to `CN1CCN(C(=O)/C(=C/c2cccs2)NC(=O)c2ccco2)CC1`, the “growth rescue (activation)” value was inactive: -21.9%.
Consider `O=C(c1cccc(Cl)c1)C1CCCN(Cc2ccc(N3CCNC3=O)cc2)C1` (stereo not drawn), for which the “growth rescue (activation)” value was inactive: 4.33%.
Turning to `O=[N+]([O-])c1ccccc1/C=N/n1c(-c2ccccc2)n[nH]c1=S`, the “growth rescue (activation)” value is inactive: -7.79%.
Consider `Cc1cccc(C(=O)NCCCNC(=O)c2cccnc2)c1`, for which the “growth rescue (activation)” value was inactive: -4.08%.
As for `COCC1CCN(Cc2cn(Cc3ccccc3)nc2-c2cc3ccccc3o2)CC1`, the “growth rescue (activation)” value was inactive: 9.88%.
Turning to `O=C(NCCCn1ccnc1)c1cc(Cl)cc(Cl)c1`, the “growth rescue (activation)” value was inactive: -3.99%.
With `CC(=O)Nc1cccc(-c2ccnc3c2CC(C(=O)NCCC(F)(F)F)O3)c1` (stereo not drawn), the “growth rescue (activation)” value is inactive: 9.36%.
For the compound `COc1ccc(-c2cc(C(=O)Nc3cc(C)on3)no2)cc1`, the “growth rescue (activation)” value was inactive: 3.2%.
Regarding `CCC1Oc2ccc(C)cc2N(CC(=O)NCCCN2CCCC2)C1=O` (stereo not drawn), the “growth rescue (activation)” value was inactive: 7.19%.
For the compound `CCOC(=O)C1(Cc2ccccc2C(F)(F)F)CCN(CC2CC2)CC1`, the “growth rescue (activation)” value was inactive: 7.42%.
For `O=S1(=O)N=C2CCCCCN2C(c2ccc(Br)cc2)N1` (stereo not drawn), the “growth rescue (activation)” value was inactive: 4.21%.
For the compound `COc1ccc(C2=NOC(C(=O)Nc3ccc4c(c3)OCO4)C2)cc1OC` (stereo not drawn), the “growth rescue (activation)” value was inactive: 10.7%.
Turning to `Cc1ccc2cc(C=O)c(Cl)nc2c1`, the “growth rescue (activation)” value is inactive: -10.5%.
Consider `CC(C)C(OC(=O)c1ccco1)C(=O)NC1CCCCC1` (stereo not drawn), for which the “growth rescue (activation)” value was inactive: -13.1%.
`COc1ccc(-c2nnc3n2CCCCC3)cc1`: the “growth rescue (activation)” value is inactive: 6.62%.
On to `O=C(CSc1nn(-c2ccccc2)c(=S)s1)NC1CCS(=O)(=O)C1` (stereo not drawn), for which the “growth rescue (activation)” value was inactive: 15.6%.
The figure for `CCS(=O)(=O)N1CCC(C(=O)O)CC1` is inactive: 12.1%; for `Cc1ccc(S(=O)(=O)N2CCN(c3ncccn3)CC2)cc1C` it is inactive: -2.79%; for `CCc1nc2c(OCCC3CCCCC3)cccn2c1N(C)C(=O)c1ccc(OC)cc1` it is inactive: -8.17%.
To `COc1ccc(-c2cc3nc(CCl)[nH]c(=O)c3s2)cc1` belongs inactive: -4.64%.
Take `O=C(NC1CCCCC1)c1cccnc1Sc1ccccc1`: the “growth rescue (activation)” value was inactive: 5.03%.
The figure for `C=CCc1c(C)nc2c(-c3ccccc3)cnn2c1N1CCOCC1` is inactive: 19.8%; for `CC(C)(C)NC(=O)C(c1ccccn1)N(C(=O)c1csnn1)C1CCCC1` (stereo not drawn) it is inactive: 0.684%; for `CCc1nnc(NC(=O)C2CC(=O)N(c3ccc4c(c3)OCCO4)C2)s1` (stereo not drawn) it is inactive: -12%.
For `Cc1ccc(S(=O)(=O)N2CCC[C@H]2C(=O)OCc2cc(=O)oc3cc(C)ccc23)cc1`, the “growth rescue (activation)” value was inactive: 20.7%.
Take `O=C(COC(=O)c1ccc(-c2ccccc2)cc1)Nc1ccccc1-c1ccccc1`: the “growth rescue (activation)” value is inactive: 11%.
As for `Fc1ccccc1NC(=S)Nc1ccc(CN2CCOCC2)cc1`, the “growth rescue (activation)” value was inactive: -22.2%.
To `NS(=O)(=O)c1ccc(N2CCN(CCOc3ccc(Cl)cc3)CC2)nc1` belongs inactive: 7.6%; to `CCN(CC)S(=O)(=O)c1cccc(C(=O)N2CCCCC2)c1`, inactive: -5.17%.
For `Clc1ccc(-c2ncc3ccccn23)cc1`, the “growth rescue (activation)” value is inactive: -0.0364%.
With `Cc1ccccc1N(C(=O)CNC(=O)c1ccco1)C(C(=O)NC1CCCCC1)c1ccncc1` (stereo not drawn), the “growth rescue (activation)” value was inactive: -2.6%.
`O=C(c1cc(S(=O)(=O)N2CCOCC2)ccc1Cl)N1CCN(c2ccccn2)CC1`: the “growth rescue (activation)” value is inactive: 10.7%.
The figure for `Cc1cc([N+](=O)[O-])ccc1-c1ccc(/C=N/NC(=O)Cc2ccccc2)o1` is inactive: 13.4%.
Regarding `CC1CCN(c2ccc(N3C(=O)C4CCCCC4C3=O)cc2[N+](=O)[O-])CC1` (stereo not drawn), the “growth rescue (activation)” value is inactive: 12%.
Take `Cc1ccc(S(=O)(=O)N(C)C)cc1NC(=O)CN1CCCC1`: the “growth rescue (activation)” value was inactive: 2.73%.
For `CN(Cc1ccccc1)S(=O)(=O)c1ccc(Cl)c(C(=O)O)c1`, the “growth rescue (activation)” value was inactive: -7.67%.
With `COCCNC(=O)CSC1=N/C(=C/c2ccc(Cl)c(Cl)c2)C(=O)N1c1ccccc1F`, the “growth rescue (activation)” value is inactive: 1.64%.
Turning to `CC(C)CN(C(=O)c1nn(C)c(=O)c2ccccc12)c1nc2ccccc2s1`, the “growth rescue (activation)” value was inactive: -10.7%.
On to `CC(=O)N1CCC(=O)N(C(C)C)c2ccccc21`, for which the “growth rescue (activation)” value was inactive: 5.41%.
To `CC(=O)Nc1ccc(N(C(=O)c2ccccn2)C(C(=O)NC2CCCCC2)c2ccc(F)cc2)cc1` (stereo not drawn) belongs inactive: -12.3%.
For the compound `COc1ccc2c(c1)C=C(CN1CCC(CO)(CCc3ccccc3)CC1)CO2`, the “growth rescue (activation)” value is inactive: -3.69%.
To `CCOC(=O)N1CCN(CC(=O)Nc2ccc(F)cc2)CC1` belongs inactive: 4.07%.
To `C/C(Cc1ccccc1)=N\NC(=O)CNC(=O)c1ccc(Cl)cc1` belongs inactive: 10.5%; to `CC(C)c1nnc(NC(=O)c2cc3ccccc3o2)s1`, inactive: -3.41%; to `COCC(=O)N(Cc1cc2cc(C)ccc2[nH]c1=O)c1cccc(C)c1C`, inactive: -7.85%.
On to `Cc1nc(SCC2(C)CC2(Cl)Cl)n[nH]1` (stereo not drawn), for which the “growth rescue (activation)” value was inactive: -4.18%.
With `COc1ccc(C2CC(=O)OC3=C2C(=O)CC(C)(C)C3)c(OC)c1` (stereo not drawn), the “growth rescue (activation)” value was inactive: -0.559%.
On to `CC(C)Oc1ccc(CCN=C(N)N=C(N)N)cc1Cl`, for which the “growth rescue (activation)” value was inactive: 3.98%.
The figure for `CC(=O)Nc1c(Nc2ccccc2)c2ccccc2oc1=O` is inactive: -11.6%; for `Cc1ccc(CNC(=O)CN(C(=O)C2(C)CC(=O)N=C3C=CC=CN32)c2cc(C)ccc2C)cc1` (stereo not drawn) it is inactive: 18.3%; for `O=S(=O)(NC1CC1)c1ccc(Cl)cc1F` it is inactive: 19.2%.
Consider `NC(N)=Nc1nc(-c2ccccc2)c2ccccc2n1`, for which the “growth rescue (activation)” value was inactive: -7.94%.
Consider `CN(Cc1ccc(F)cc1)C(=O)CN1C(=O)c2ccccc2S1(=O)=O`, for which the “growth rescue (activation)” value was inactive: 17.1%.
Take `COc1ccc(-n2nc(C(=O)NCC(=O)N3CCC(C(N)=O)CC3)c3ccccc3c2=O)cc1OC`: the “growth rescue (activation)” value was inactive: 6.87%.
Take `Cc1ccccc1-c1cc2nc(-c3ccc([N+](=O)[O-])cc3)cc(=O)n2[nH]1`: the “growth rescue (activation)” value is inactive: 1.03%.
The figure for `CCOC(=O)C1C(c2ccccc2)C(C(=O)OCC)S(=O)(=O)C(CCN(CC)CC)S1(=O)=O` (stereo not drawn) is inactive: -10.7%.
With `COc1cccc(C(=O)OCC(=O)Nc2ccc3c(c2)OCCO3)c1`, the “growth rescue (activation)” value was inactive: 4.43%.
Turning to `CNS(=O)(=O)c1cccc(C(=O)OCC(=O)Nc2ccc3ccccc3c2)c1`, the “growth rescue (activation)” value is inactive: 3.18%.
As for `CCNC(=S)NNC(=O)c1ccc(OC)cc1`, the “growth rescue (activation)” value is inactive: 2.49%.
Turning to `CN(C(=O)CSc1ncnc2sc3c(c12)CCCC3)C1CCS(=O)(=O)C1` (stereo not drawn), the “growth rescue (activation)” value is inactive: 19.5%.
With `CN(c1cccc(NS(=O)(=O)c2cccc([N+](=O)[O-])c2)c1)S(C)(=O)=O`, the “growth rescue (activation)” value is inactive: -4.69%.
Turning to `CC(C)c1ccc(C(=O)Nc2ccc(CN3CCOCC3)cc2)cc1`, the “growth rescue (activation)” value is inactive: -13.4%.
The figure for `O=C(COc1ccc([N+](=O)[O-])cc1)NCCc1nc2ccccc2[nH]1` is inactive: 4.76%.
Regarding `CC(Sc1nnnn1C)C(=O)NC1CCCC1` (stereo not drawn), the “growth rescue (activation)” value was inactive: 11.6%.
Turning to `Cc1cc(NC(=O)CSc2nc3c(C)ccc(C)c3cc2C#N)no1`, the “growth rescue (activation)” value is inactive: 4.04%.
The figure for `Cc1ccc(NC(=O)CSc2n[nH]c(-c3ccncc3)n2)c(C)c1` is inactive: -18.7%; for `Cc1ccsc1C(=O)Nc1cccc(S(=O)(=O)N(C)C)c1` it is inactive: 5.85%.
Regarding `Cc1ccc(C(=O)Nc2ccccc2C(=O)N2CCCCCC2)cc1`, the “growth rescue (activation)” value is inactive: 19.4%.
Turning to `CCCCN1C(=O)c2ccc(C(=O)NCCN3C(=O)S/C(=C\c4cccnc4)C3=O)cc2C1=O`, the “growth rescue (activation)” value is inactive: -2.16%.
The figure for `COc1ccc(-n2c(O)c(C=Nc3ccccc3)c3ccccc3c2=O)cc1` is inactive: -6.2%.
